Source: paper PMC12743552, “Key residues regulating von Willebrand factor A1/A2 interactions: insights from molecular dynamics simulations and experimental validation” (Research and Practice in Thrombosis and Haemostasis, 2025)

What was measured:
[1] = biological target: T1, recombinant VWF-A2 (von Willebrand factor A2 domain, amino acids M1473-G1672), wild type (UniProt P04275 1473-1672, biotinylated in the BLI assay (site not stated); not said to be biotinylated in the AFM assay); experiment: atomic force microscopy (adhesion frequency and rupture force); VWF-A2 (15 ug/mL) held on the cantilever tip and VWF-A1 or its variants (15 ug/mL) on polystyrene dishes, each through adsorbed mouse anti-His mAb; blocked with 2% BSA; approach-retraction speed 200 nm/s in 2% BSA; 100 contact cycles a point; settings: both partners purified
T1 construct: von Willebrand factor, A2 domain, residues M1473-G1672; cloned from a full-length VWF plasmid (MiaoLingBio); Secreted into the medium of HEK293F cells; The discussion calls the host HEK293 cells; source: HEK293F cells, culture medium collected, purified (Ni2+-Hi-Trap chelating column); not shown: His tag, N-terminal, kept

[2] = biological target: T2, VWF-A2 mutant A2_mut (V1546A/R1575A/E1598A) (UniProt P04275 1473-1672, V1546A | R1575A | E1598A); experiment: as above; settings: both partners purified
T2 construct: von Willebrand factor, A2 domain, residues M1473-G1672, with V1546A, R1575A and E1598A; source: HEK293F cells, culture medium collected, purified (Ni2+-Hi-Trap chelating column); not shown: His tag, N-terminal, kept

average rupture force [1]: 42.2 pN
central peak value (XC) of the rupture force distribution [1]: 34.4 pN
adhesion frequency [2]: 6.4%
average rupture force [2]: 33 pN
central peak value (XC) of the rupture force distribution [2]: 24.5 pN
B1: recombinant VWF-A1 (von Willebrand factor A1 domain, […]), wild type (domain or fragment)
chain: not shown
notes: von Willebrand factor, A1 domain, […]; cloned from a full-length VWF plasmid (MiaoLingBio); Secreted into the medium of HEK293F cells; The tag is 6xHis to judge from the anti-6xHis antibody used for capture; also called WT A1; WT VWF-A1; source: HEK293F cells, culture medium collected, purified (Ni2+-Hi-Trap chelating column); not shown: His tag, N-terminal, kept
